Source: article PMC4336329 (PLoS ONE, 2015)
Out of some 310,000 compounds screened, about 2,200 (0.71%) showed an effect of 50% or more. The effect is printed as a negative number. The list shows a part of the results.

biological target: human ether-à-go-go-related gene (hERG) potassium channel (human, UniProt Q12809); experiment: primary screen, population patch clamp on CHO cells stably expressing hERG
Sequence (Q12809 whole entry, looked up): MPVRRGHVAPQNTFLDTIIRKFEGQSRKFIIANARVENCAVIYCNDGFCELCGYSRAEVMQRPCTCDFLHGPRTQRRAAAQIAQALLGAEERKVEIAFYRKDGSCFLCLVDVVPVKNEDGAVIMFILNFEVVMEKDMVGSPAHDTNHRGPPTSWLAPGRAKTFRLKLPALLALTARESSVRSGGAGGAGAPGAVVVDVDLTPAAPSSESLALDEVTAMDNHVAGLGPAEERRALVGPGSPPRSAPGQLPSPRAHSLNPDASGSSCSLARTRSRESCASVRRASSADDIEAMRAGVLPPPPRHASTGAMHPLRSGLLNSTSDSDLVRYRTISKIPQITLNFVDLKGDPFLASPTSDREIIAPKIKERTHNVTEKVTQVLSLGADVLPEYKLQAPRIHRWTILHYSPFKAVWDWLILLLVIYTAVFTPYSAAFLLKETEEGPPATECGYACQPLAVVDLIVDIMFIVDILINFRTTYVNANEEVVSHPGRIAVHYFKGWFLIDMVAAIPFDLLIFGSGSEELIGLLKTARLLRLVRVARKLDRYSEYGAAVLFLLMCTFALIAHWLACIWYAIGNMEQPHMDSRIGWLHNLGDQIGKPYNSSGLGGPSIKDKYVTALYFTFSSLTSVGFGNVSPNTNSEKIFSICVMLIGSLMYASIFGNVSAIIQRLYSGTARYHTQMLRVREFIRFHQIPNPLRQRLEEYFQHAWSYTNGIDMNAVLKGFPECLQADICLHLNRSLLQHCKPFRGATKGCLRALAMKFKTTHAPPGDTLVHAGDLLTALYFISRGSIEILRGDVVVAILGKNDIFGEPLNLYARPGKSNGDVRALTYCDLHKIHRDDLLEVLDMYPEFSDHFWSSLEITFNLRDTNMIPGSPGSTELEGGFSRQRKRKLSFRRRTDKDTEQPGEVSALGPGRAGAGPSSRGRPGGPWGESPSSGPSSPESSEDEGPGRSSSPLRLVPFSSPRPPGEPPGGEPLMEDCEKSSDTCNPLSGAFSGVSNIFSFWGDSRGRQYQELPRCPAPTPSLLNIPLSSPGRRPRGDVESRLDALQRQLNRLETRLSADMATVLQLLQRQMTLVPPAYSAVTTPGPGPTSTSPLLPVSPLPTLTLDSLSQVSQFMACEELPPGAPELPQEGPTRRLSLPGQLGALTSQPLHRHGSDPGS

Row | Compound | hERG current change (%, negative = inhibition) at 1uM [%]
1 | CCn1cc(C(=O)NP(=O)(Nc2ccc(C)cc2)Nc2ccc(C)cc2)c2ccccc21 | 8.49
2 | Cc1ccccc1-c1nc(P(=O)(c2ccccc2)c2ccccc2)c(N2CCOCC2)o1 | 10.9
3 | Cc1cccc(NC(=O)CSCC(=O)Nc2ccc(S(=O)(=O)N3CCOCC3)cc2)c1 | 12.9
4 | Cc1ccc(CC(=O)NCCC(=O)O)cc1 | 13.5
5 | O=C(CCNC(=O)c1ccc([N+](=O)[O-])cc1)Nc1ccccc1N1CCCC1 | -6.37
6 | O=C1COc2ccc(-c3n[nH]c(=O)c4ccccc34)cc2N1 | 9.84
7 | CCCCNC(=O)N1CCCC(C(=O)c2cc(C)c(OC)c(C)c2)C1 (centres unmarked) | 1.87
8 | Cc1onc(-c2ccccc2Cl)c1C(=O)NCC(=O)O | -5
9 | COc1cc(-c2nc(CN(C)Cc3nnc(C)o3)c(C)o2)ccc1F | -5.68
10 | C=CCNCCCCOc1ccc(OCC)cc1.O=C(O)C(=O)O | -4.67
11 | CC(C)CC(C(=O)O)N1C(=O)[C@@H]2[C@H](C1=O)[C@@H]1C[C@H]2C(Br)C1Br (some centres unmarked) | 3.6
12 | O=c1[nH]ccc2c(O)cccc12 | 20.6
13 | O=C(CN1CCN(S(=O)(=O)c2ccc(Br)cc2)CC1)N/N=C/c1ccccc1C(=O)O | 17.8
14 | O=C(CC1C(=O)NCCN1C/C=C/c1ccccc1)NCCCC1CCCC1 (centres unmarked) | -17.4
15 | COc1ccc(O)c(/C=C2/SC(=S)N(Cc3ccccc3)C2=O)c1 | 8.29
16 | O=C(NCC1CCCO1)c1ccc(Br)c(S(=O)(=O)N2CCOCC2)c1 (centres unmarked) | -6.94
17 | N#C/C(=C\c1c(N2CCOCC2)nc2ccccn2c1=O)S(=O)(=O)c1ccccc1 | 0.0867
18 | CC1CN(Cc2nc3c(c(=O)n(C)c(=O)n3C)n2Cc2cccc(Cl)c2)CC(C)O1 (centres unmarked) | 8.66
19 | Cc1nc(CCNC(=O)CC2C(=O)NCCN2Cc2ccoc2)nc2c1CCCC2 (centres unmarked) | 6.23
20 | CCN(CC)S(=O)(=O)c1cccc(C(=O)N[C@H](C(=O)Nc2nc3ccccc3s2)C(C)C)c1 | 14.4
21 | CC(C)(C)OC(=O)Nc1ncnc2c1ncn2C1OC(CO)C2OC(C)(C)OC21 (centres unmarked) | 12.4
22 | CCCSc1cc(=O)n(-c2ccccc2)nc1C(=O)OCC | 5.07

Row | Compound | hERG current change (%, negative = inhibition) at 1uM [%]
23 | COCCn1c(N)c(Sc2ccc([N+](=O)[O-])cc2)c(=O)[nH]c1=O | 3.81
24 | CN(C)c1cc[n+](CC(=O)c2ccc(Br)cc2)cc1.[Cl-] | 7.53
25 | Cc1ccc(C(=O)N/C(=C\c2cn(C)c3ccccc23)C(=O)OCCN(C)C)cc1 | -0.359
26 | CCc1nc(SCC(=O)N2CCc3cc(OC)c(OC)cc3C2)c(C#N)cc1C | 15.4
27 | Cn1cc(CN2CCC(n3nccc3NC(=O)CCOc3ccccc3)CC2)cn1 | 7.33
28 | O=C(Cc1c(F)cccc1Cl)NNC(=O)c1ccccc1Cl | 6.71
29 | O=c1c2ccsc2ncn1Cc1cccc(C(F)(F)F)c1 | 6.44
30 | COc1ccc(C(=O)Nn2c(C)nc3ccccc3c2=O)cc1Br | 10.4
31 | COc1ccc(CNC(=O)c2ccc(-c3ccccc3)cc2)cc1 | 16.1
32 | C=CCN1CCN(C(=O)CSc2ccccc2)CC1 | 5.06
33 | O=C(CN(Cc1ccccc1)C(=O)c1ccco1)NCc1ccc(F)cc1 | 2.1
34 | O=C(c1cccc(NS(=O)(=O)c2ccc(F)c(F)c2)c1)N1CCN(Cc2ccccc2)CC1 | 4.84
35 | C/C(=N/NC(=O)Cc1cccc2ccccc12)c1cccs1 | 10.5
36 | COc1ccccc1C1C(C(=O)c2cc3ccccc3o2)=C(O)C(=O)N1c1cc(C)on1 (centres unmarked) | 14.6
37 | O=C1COc2ccc(S(=O)(=O)NCCc3ccccc3)cc2N1 | 14.3
38 | Cc1cccc(CSc2nnc(-c3ccccn3)n2N)c1 | 9.76
39 | Cc1cccc(C)c1NS(=O)(=O)c1cc2c3c(c1)CC(=O)N3CCC2 | 9.75
40 | CS(=O)CCC(NS(=O)(=O)c1ccccc1)C(=O)O (centres unmarked) | 13.7
41 | COC(=O)c1ccc(CN2C(=O)NC3(CCCCC3)C2=O)cc1 | 14.1
42 | O=c1c2c3c(sc2nc(N2CCNCC2)n1CCc1ccccc1)CCCCC3 | 6.75
43 | COc1ccc(C2/C=C\CNCC(=O)N2Cc2ccc(F)cc2)cc1 (centres unmarked) | 8.65
44 | CCCOc1ccc(Cn2ccnc2)cc1[N+](=O)[O-] | -18.4

Row | Compound | hERG current change (%, negative = inhibition) at 1uM [%]
45 | COc1ccc2c(c1)[C@H]1[C@H](CO2)[C@H](c2ccccc2)[C@]2(C)C(=O)Nc3cc(Cl)ccc3C(=O)N12 | 2
46 | COCCNC(=O)CN(C(=O)Cn1nnc2ccccc21)c1ccccc1C | 5.18
47 | CC(=O)N(CCCNC(=O)c1ccccc1)C(=O)c1ccccc1 | 10.6
48 | COC(=O)CSc1ccc2nnc(-c3ccc(OC)c(OC)c3)n2n1 | 0.586
49 | Cc1cc(C)cc(NC(=O)N2CCN(C/C=C/c3ccccc3)CC2)c1 | -40
50 | O=C(Nc1ccc(-c2cc3ccccc3oc2=O)c(Cl)c1)c1cccnc1 | 2.01
51 | CCCCC1CCC(c2nc(-c3ccccn3)no2)CC1 (centres unmarked) | 5.57
52 | O=C(N/N=C/c1ccncc1)c1cccc(NC(=O)c2ccccc2Cl)c1 | 4.79
53 | COC(=O)[C@@]1(Cc2ccc(OC)cc2)[C@@H]2C(=CC(=O)[C@H]2CC(=O)C(=O)N(C)C)CN1C(=O)c1ccccc1 | -7.95
54 | COc1ccc(C(=O)Nc2cc(C)ccc2NC(=O)COc2ccccc2)cc1 | 5.43
55 | Cl.OC(COCC1COc2ccccc2O1)CN1CCN(c2ccccc2F)CC1 (centres unmarked) | -19.9
56 | O=C(Cn1ncc2c(=O)oc3ccccc3c21)NCc1cccnc1 | 4.02
57 | CCCCn1c(N)c(N(CC)C(=O)c2cccc(C)c2)c(=O)[nH]c1=O | 12.8
58 | C=CCc1c(C)nc2cc(-c3ccc(C)cc3)[nH]n2c1=O | 7.24
59 | O=C(NNc1cccc(Cl)n1)c1c(Cl)cccc1Cl | 14.7
60 | COC(=O)c1cc2n3ccccc3c(C)c(-c3ccccc3)c-2c1C(=O)OC | -6.52
61 | Cc1ccc(CCNC(=O)c2cc(C)nn2-c2ccccc2)cc1 | -2.18
62 | CC(=O)c1c(C)[nH]c(C(=O)Nc2ccc(C)c(S(=O)(=O)N(C)C)c2)c1C | -9.05
63 | O=C(CCC1CCCC1)NCCCNC(=O)CCC1CCCC1 | 10.6
64 | Cc1cc(NC(=O)c2n[nH]c(=O)c3ccccc23)ccc1Br | 9.97
65 | O=C(O)c1cc(O)ccc1NC(=O)C(c1ccccc1)c1ccccc1 | 10.4
66 | CCOc1ccc(CCNC(=O)CCCn2c(=O)c3cccn3c3cccnc32)cc1OCC | -6.56

Row | Compound | hERG current change (%, negative = inhibition) at 1uM [%]
67 | COc1ccc(/C=N/NC(=O)c2ccccc2OC)cc1COc1ccccc1[N+](=O)[O-] | 8.25
68 | O=C(CCNc1n[nH]c(=O)[nH]c1=O)N/N=C/c1ccccc1Br | 8.78
69 | CCC(C)c1ccccc1NC(=O)COC(=O)c1ccc2[nH]c3c(c2c1)CCCC3 (centres unmarked) | -2.95
70 | Cc1ccc(S(=O)(=O)c2ccc(-n3nc(C)cc3N)cc2)cc1 | 9.92
71 | COc1ccccc1-n1nc(C(=O)Nc2ccc3c(c2)OCO3)c2ccccc2c1=O | 9.19
72 | Cc1ccc(NC(=S)N(CCN(C)C)Cc2cccs2)cc1 | 6.87
73 | COC1C(C)=C(C)C(=O)N1Cc1ccc(F)cc1 (centres unmarked) | 14.7
74 | Cc1ccc(C(O)c2cccnc2)o1 (centres unmarked) | 14.2
75 | Cc1ccc(-n2nnc3c(SCC(=O)NCc4ccco4)ncnc32)cc1 | 5.33
76 | O=C(Nc1ccc(F)cc1)c1ccc2c(=O)n3c(nc2c1)CCCCC3 | -23
77 | COc1ccc(C2Nc3ccccc3C(=O)N2c2ccccc2)cc1COc1ccccn1 (centres unmarked) | 15.1
78 | COc1cccc(NC(=O)CSc2nc3scc(C)c3c(=O)[nH]2)c1 | 10.3
79 | COc1ccc(-c2nc3ccc(N4CCN(C)CC4)cc3c(=O)[nH]2)cc1 | 11.5
80 | CC(NC(=O)COC(=O)c1ccc2c(c1)S(=O)(=O)N=C1CCCCCN12)C12CC3CC(CC(C3)C1)C2 (centres unmarked) | 0.02
81 | CC(=O)N1CCC(C(=O)OCc2ccccc2F)(c2ccccc2)CC1 | 13.3
82 | Cc1ccn2c(=O)nc(SCC(=O)NCc3ccc(F)cc3)nc2c1 | 23.1
83 | CC1CCCCN1Cc1ccc(N)cc1 (centres unmarked) | 16
84 | Oc1ccccc1Oc1ncc(Br)c(Cl)n1 | 15.2
85 | Cc1ccc2c(c1)CC1(CN2C)C(=O)NC(=O)N(CCc2ccccc2)C1=O (centres unmarked) | -4.16
86 | COc1ccc(O[C@H]2C=C[C@@H](c3ccccc3)O[C@@H]2COC(=O)CC/C(C)=N/O[C@H](C)c2cn([C@@H]3COC[C@H]3O)nn2)cc1 | 1.7
